Assay results: PubChem BioAssay (NCI)
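Following 48 hours of exposure in 96-well plates, responses at five concentrations were used to interpolate endpoints linearly. GI50 marks 50% less growth. At the TGI there is no net growth.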 Peptide text beside a SMILES is read from it.

system: NCI-H322M lung; assay: NCI tumour cell line growth inhibition, 48 h

Going from `CC(=O)c1ccc2c(c1)CC1(C2)Cc2cc3c(cc2C1)C(=O)CC3` (stereo not drawn) to `COc1ccc(-n2c(N)c(C(=O)NCCN3CCOCC3)c3nc4ccccc4nc32)cc1OC`, the TGI rises from 19.9 µM to > 100 µM.

`O=C(/C=C/c1ccccc1F)C(c1ccccc1)c1ccccc1` and `O=C(/C=N/O)c1c(-c2ccccc2)[nH]c(-c2ccccc2)c1-c1ccccc1` are within 1.5-fold of each other in TGI: 18.2 µM for the first, 24.6 µM for the second.

`CC(=O)OCCOCNC(=S)N/N=C(\C)c1ccco1` and `CCOC(=O)c1c(NC(=S)NCc2ccccc2)sc2c1CCN(C)C2` cannot be ordered by TGI: > 100 µM for the first, > 100 µM for the second.

First: C[n+]1c2ccccc2c(NC2CCNCC2)c2[nH]c3ccccc3c21
Second: COC(=O)C1Cc2c([nH]c3ccccc23)C=N1 (stereo not drawn)
The TGI of the first is lower: 5.01 µM for the first, > 100 µM for the second.

Going from `O=C1NC(=NCc2ccccn2)S/C1=C\c1ccc2ncccc2c1` to `Oc1ccc2ccccc2c1/C=N\Nc1ccccn1`, the TGI falls from > 25 µM to 1.46 µM.

Going from `C#CCNC(Cc1ccccc1)C(=O)O` (stereo not drawn) to `CC(=O)C1=CC=C/C1=N\Nc1ccccc1`, the TGI falls from > 100 µM to 23 µM.

First: CCCCc1ccc(N2C(=O)c3cc(C)cnc3S2(=O)=O)cc1
Second: Cc1ccc(/C=C(\C#N)n2nnc3cc(F)c(F)cc32)cc1
The TGI of the first is higher: > 100 µM for the first, 9.13 µM for the second.

`Fc1ccc(Nc2nc(Nc3ccc(-c4nc5ccccc5[nH]4)cc3)nc(N3CCCC3)n2)cc1` and `CN(C)CCn1cc(-c2ccc3c(Nc4ccc(CC(=O)Nc5cccc(F)c5)cc4)ncnc3c2)cn1` cannot be ordered by TGI: 15.9 µM for the first, > 10 µM for the second.

Going from `CC(C)(C)NNc1c([N+](=O)[O-])cnn(-c2ccccc2)c1=O` to `Cc1ccc(Nc2ncnc3sc(SCc4ccccc4)nc23)cc1`, the TGI rises from 23.4 µM to > 100 µM.

`CCOC(=O)c1cc(-c2ccc(OC)c(OC)c2)cn1C` and `COCOc1cc(OC)ccc1C=O` cannot be ordered by TGI: > 10 µM for the first, > 100 µM for the second.

`C[C@H](NC(=O)OC1C2C=CC(O)C1CC2)c1ccccc1` (stereo partly drawn) and `CCOC(=O)[C@H]1Nc2ccc(O)cc2C2c3ccccc3CC21` (stereo partly drawn) cannot be ordered by TGI: > 100 µM for the first, > 100 µM for the second.

First: CCCCc1cc2c(cc1O)CCC1C2CC[C@@]2(C)C1CC[C@@H]2O (stereo partly drawn)
Second: CC(=O)O[C@H]1CC[C@@]2(C)C(=CC[C@@H]3C2CC[C@]2(C)Nc4oncc4CC32)C1 (stereo partly drawn)
The TGI of the first is lower: 40.3 µM for the first, > 100 µM for the second.

Compared with `CCCCCOP(=O)(OCCCCC)C(NC(C)=O)(C(=O)OCC)C(F)(F)F` (stereo not drawn), `CCOC(=O)C(=Cc1ccccc1Br)C(=O)OCC` is lower in TGI: > 100 µM for the first, 6.98 µM for the second.

`COc1nc2c(nc(N)n2C2OC(CO)C(O)C(O)C2O)c(=O)n1C` (stereo not drawn) and `COc1ccc(OC)c2c1C[C@@H]1C(C#N)N3[C@H](Cc4c(OC)ccc(OC)c4[C@@H]3C)C(=O)N1[C@H]2C` (stereo partly drawn) cannot be ordered by TGI: > 100 µM for the first, > 100 µM for the second.

Compared with `Fc1ccc(C(=NCc2ccccc2)N2CCOCC2)cc1`, `CC(C)C[C@H](NC(=O)[C@@H](Cc1cccc2ccccc12)NC(=O)N1CCOCC1)B(O)O` is lower in TGI: > 100 µM for the first, 43.4 µM for the second.

Going from `CC(C)[C@]12O[C@H]1[C@@H]1O[C@]13[C@]1(O[C@H]1C[C@H]1c4c(C(=O)c5ccccc5)oc(OC(=O)c5ccccc5)c4CC[C@@]13C)[C@@H]2O` to `CCC(=O)O[C@@H]1C2C(OC(C)=O)C34COC(C)([C@@H]3C3C(C[C@]3(C)OC(C)=O)[C@@H](OC(=O)c3ccccc3)C4=O)[C@H](OC(C)=O)[C@@]2(OC(C)=O)C[C@@H]1C` (stereo partly drawn), the TGI rises from 4.61 µM to > 100 µM.

First: C/C=C/C1(NS(=O)(=O)c2ccc(C)cc2)CCC(C(C)(C)C)CC1 (stereo not drawn)
Second: Cc1ccc(S(=O)(=O)N2CCCCC2CCO)cc1 (stereo not drawn)
The TGI of the first is lower: 75.9 µM for the first, > 100 µM for the second.

First: O=C1/C(=C/c2ccc(O)cc2)CCC1CNc1ccc(Cl)cc1 (stereo not drawn)
Second: Cc1cc(Cl)ccc1N1C(=O)C(=O)C(c2nc3ccccc3s2)C(=O)C1=O
The TGI of the first is lower: 24.3 µM for the first, > 100 µM for the second.

`NS(=O)(=O)c1ccc(CNC(=S)NC(=O)Nc2ccc(Cl)c(Cl)c2)cc1` and `CCOc1ccc(NC(=O)C2=C(C)NC(C)=C(C(=O)Nc3ccc(OCC)cc3)C2c2ccc([N+](=O)[O-])cc2)cc1` cannot be ordered by TGI: > 100 µM for the first, > 100 µM for the second.

`NCCOc1ccccn1` and `CCOC1NC(=O)Oc2ccccc21` (stereo not drawn) cannot be ordered by TGI: > 100 µM for the first, > 100 µM for the second.

Going from `O=C(/C=C1\N=C(c2ccccc2)N(c2ccc3c(c2)Sc2cc(N4C(=O)/C(=C/C(=O)/C=C/c5ccccc5)N=C4c4ccccc4)ccc2N3)C1=O)/C=C/c1ccccc1` to `Cc1cn2c(/C=C3/C(=O)Nc4ccccc43)c(-c3ccccc3)nc2s1`, the TGI rises from 43.2 µM to > 100 µM.

First: CC(C)(C)c1cc(C2COC(=O)COCCOCC(=O)OCCOCCO2)cc(C(C)(C)C)c1O (stereo not drawn)
Second: COc1ccc2c(CNCCCCO)cc3cc4c(cc3c2c1)OCO4
The TGI of the first is 8.3-fold higher: 63 µM for the first, 7.6 µM for the second.

Compared with `Cc1c(Cl)cccc1NC(=O)C(=O)C1C(=O)NC(=O)NC1=O`, `Cc1c2cc[n+](C)cc2c(C)c2c1[nH]c1ccc(O)cc12` is lower in TGI: > 100 µM for the first, 66.5 µM for the second.

`CCCCCC(=O)N[C@H](C(=O)N[C@H](C(=O)N(C)[C@@H](CC(C)C)C(=O)N1CCC[C@H]1C(=O)N1CCC[C@H]1C(=O)O[C@H](C(=O)N1C(=O)C=C(OC)[C@@H]1Cc1ccccc1)C(C)C)C(C)C)C(C)C` (HELM PEPTIDE1{[CCCCCC(=O)[*:2]].V.V.[meL].P.P.[COC1=CC(=O)N(C(=O)[C@@H](O[*:1])C(C)C)[C@H]1Cc1ccccc1]}$$$$V2.0) and `O=C1c2cc3c(cc2-c2c1c1ccc([N+](=O)[O-])cc1c(=O)n2CCCCl)OCO3` cannot be ordered by TGI: > 100 µM for the first, > 100 µM for the second.

`C[n+]1c2ccccc2c(NC2CCNCC2)c2[nH]c3ccccc3c21` and `Oc1ccc2ccccc2c1/C=N\Nc1ccccn1` are within 1.5-fold of each other in GI50: 0.254 µM for the first, 0.257 µM for the second.

Going from `O=C1NC(=NCc2ccccn2)S/C1=C\c1ccc2ncccc2c1` to `Cc1ccc(/C=C(\C#N)n2nnc3cc(F)c(F)cc32)cc1`, the GI50 falls from 7.95 µM to 2.98 µM (2.7-fold).

Compared with `Fc1ccc(Nc2nc(Nc3ccc(-c4nc5ccccc5[nH]4)cc3)nc(N3CCCC3)n2)cc1`, `CN(C)CCn1cc(-c2ccc3c(Nc4ccc(CC(=O)Nc5cccc(F)c5)cc4)ncnc3c2)cn1` is higher in GI50: 3.74 µM for the first, > 10 µM for the second.

First: CC(C)[C@]12O[C@H]1[C@@H]1O[C@]13[C@]1(O[C@H]1C[C@H]1c4c(C(=O)c5ccccc5)oc(OC(=O)c5ccccc5)c4CC[C@@]13C)[C@@H]2O
Second: COc1ccc(-n2c(N)c(C(=O)NCCN3CCOCC3)c3nc4ccccc4nc32)cc1OC
The GI50 of the first is 320-fold lower: 0.0312 µM for the first, 9.94 µM for the second.

`O=C1c2cc3c(cc2-c2c1c1ccc([N+](=O)[O-])cc1c(=O)n2CCCCl)OCO3` and `COc1ccc2c(CNCCCCO)cc3cc4c(cc3c2c1)OCO4` are within 1.5-fold of each other in GI50: 1.68 µM for the first, 2.43 µM for the second.
